Inconclusive results, whose numbers are uncertain, are shown with a selection of clear calls. Where the call is inconclusive, the potency comes from a doubtful curve fit. Calls of active or inactive are those of the source. Calls follow the shape of the dose curve; as a rule, active = well fitted curve in the direction sought with a large enough effect; inconclusive = small, poorly fitted or top-dose-only effect, or another doubt; inactive = no such curve, though single readings can be large; an effect the other way counts as inactive or inconclusive.
Assay: qHTS of pediatric cancer cell lines to identify multiple opportunities for drug repurposing: Primary screen for DAOY cells (AID 1347090); also: nearly all actives have a fitted effect of over 55% in size;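 as to activity change, negative = cytotoxic: plate controls were DMSO for no effect and bortezomib for full effect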
Settings: DAOY medulloblastoma viability, CellTiter-Glo luminescence, 48 h; activity change, negative = cytotoxic: at 46 µM (top of the series)
In short: (§1)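 Eight- or eleven-point concentration series, 48 h treatment at 37 degrees C in growth media; readout CellTiter-Glo luminescence. Potency and efficacy were taken from the concentration-response curves.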
In the case of O=C(N[C@H]1CN2CCC1CC2)c1ccc(Cl)cc1, the Potency is reported as active: 18.7 µM.
For COc1ccc(CC2NCCc3cc(OC)c(OC)cc32)cc1OC (centres undefined), the “activity change, negative = cytotoxic” value was inactive: -20.3%.
With C[C@](O)(COc1ccc(C#N)cc1)C(=O)Nc1ccc(C#N)c(C(F)(F)F)c1 the Potency was inconclusive: 23.5 µM [cytotoxic, partial curve].
With C[C@]12CC[C@H]3[C@@H](CC[C@@]45O[C@H]4C(O)=C(C#N)C[C@]35C)[C@H]1CC[C@H]2O the Potency was inconclusive: 13.3 µM [cytotoxic, partial curve, poor fit].
In the case of C[C@]12CCC(=O)C=C1CC[C@@H]1[C@H]3CC[C@](C)(O)[C@@]3(C)CC[C@@H]12, the Potency is reported as inconclusive: 42.9 µM [cytotoxic, partial curve, poor fit].
For CC(Cc1ccccc1)N(C)Cc1ccco1 (centres undefined), the “activity change, negative = cytotoxic” value was inactive: 4.48%.
With COc1cc([C@@H]2c3cc4c(cc3[C@@H](O)C3COC(=O)C32)OCO4)cc(OC)c1O (some centres undefined) the Potency was inconclusive: 0.0187 µM [cytotoxic, full curve, poor fit].
In the case of Cc1nnc2n1-c1sc(CCc3ccc(CC(C)C)cc3)cc1C(c1ccccc1Cl)=NC2C (centres undefined), the Potency is reported as inconclusive: 26.6 µM [cytotoxic, single point].
With CO[C@]12CC[C@@]3(C[C@@H]1[C@](C)(O)C(C)(C)C)[C@@H]1Cc4ccc(O)c5c4[C@@]3(CCN1CC1CC1)[C@H]2O5 the Potency was inconclusive: 60.5 µM [cytotoxic, single point].
With COc1cccc(C(=O)CCN[C@@H](C)[C@H](O)c2ccccc2)c1 the Potency was active: 26.6 µM.
With Nc1nc(N)nc(NC2CC2)n1 the “activity change, negative = cytotoxic” value was inactive: -16%.
For CC(C)(C)c1cc(C=C(C#N)C#N)cc(Br)c1O, the Potency was inconclusive: 29.6 µM [cytotoxic, single point].
In the case of CCN(CC)C(=O)N[C@@H]1C=C2c3cccc4[nH]cc(c34)C[C@@H]2N(C)C1, the “activity change, negative = cytotoxic” value is reported as inactive: 2.68%.

Assay: qHTS of pediatric cancer cell lines to identify multiple opportunities for drug repurposing: Primary screen for SJ-GBM2 cells (AID 1347091);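 as to activity change, negative = cytotoxic: plate controls were DMSO neutral control for no effect and bortezomib for full effect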
Settings: SJ-GBM2 viability, CellTiter-Glo luminescence, 48 h; series mostly up to 46 µM; activity change, negative = cytotoxic: at the top concentration
In short: as §1
In the case of C=CCC1([C@H](C)CCC)C(=O)NC(=O)NC1=O, the “activity change, negative = cytotoxic” value is reported as inactive: 0.31% [at 92.7 µM].
In the case of O=[N+]([O-])c1c(Cl)c(Cl)cc(Cl)c1Cl, the “activity change, negative = cytotoxic” value is reported as inactive: 23.3% [at 92.7 µM].
With O=C(NC(O)C(Cl)(Cl)Cl)NC(O)C(Cl)(Cl)Cl (centres undefined) the “activity change, negative = cytotoxic” value was inactive: 12.7%.
In the case of CC(=O)N(C)c1cccc(-c2ccnc3c(C(=O)c4cccs4)cnn23)c1, the “activity change, negative = cytotoxic” value is reported as inactive: 30.6%.
With C[C@](O)(COc1ccc(C#N)cc1)C(=O)Nc1ccc(C#N)c(C(F)(F)F)c1 the Potency was inconclusive: 33.2 µM [cytotoxic, single point].
In the case of O=c1[nH]c2ccccc2n1CCCN1CCC(n2c(=O)[nH]c3cc(Cl)ccc32)CC1, the Potency is reported as inconclusive: 33.5 µM [cytotoxic, single point].
In the case of C[C@]12CCC(=O)C=C1CC[C@@H]1[C@H]3CC[C@](C)(O)[C@@]3(C)CC[C@@H]12, the Potency is reported as active: 49 µM.
For COc1cc([C@@H]2c3cc4c(cc3[C@@H](O)C3COC(=O)C32)OCO4)cc(OC)c1O (some centres undefined), the Potency was active: 0.0148 µM.
In the case of CCC1(C2=NCCN2)Cc2ccccc2O1 (centres undefined), the “activity change, negative = cytotoxic” value is reported as inactive: 14.3%.
In the case of CC1(C)CC/C(=C/c2ccc(Cl)cc2)C1(O)Cn1cncn1 (centres undefined), the Potency is reported as inconclusive: 42.8 µM [cytotoxic, partial curve].
With ClC1=C(Cl)[C@]2(Cl)[C@@H]3[C@@H]4C[C@@H]([C@H]5O[C@@H]45)[C@@H]3[C@@]1(Cl)C2(Cl)Cl the Potency was inconclusive: 21.7 µM [cytotoxic, partial curve].
With CO[C@]12CC[C@@]3(C[C@@H]1[C@](C)(O)C(C)(C)C)[C@@H]1Cc4ccc(O)c5c4[C@@]3(CCN1CC1CC1)[C@H]2O5 the Potency was inconclusive: 67.9 µM [cytotoxic, single point].
With O=C1CN=C(c2ccccc2)c2cc([N+](=O)[O-])ccc2N1 the “activity change, negative = cytotoxic” value was inactive: -5.39%.
With CN1C2CCC(C)(C)C1CC(OC(=O)C(O)(c1cccs1)c1cccs1)C2 (centres undefined) the Potency was inconclusive: 1.88 µM [cytotoxic, partial curve].
In the case of Oc1ccc2c3c1O[C@H]1[C@@H](O)C=C[C@H]4[C@@H](C2)NCC[C@@]341, the “activity change, negative = cytotoxic” value is reported as inactive: 4.05% [at 92.7 µM].
With CC(C)(C)c1cc(C=C(C#N)C#N)cc(Br)c1O the Potency was active: 2.64 µM.

Assay: qHTS of pediatric cancer cell lines to identify multiple opportunities for drug repurposing: Primary screen for A673 cells (AID 1347092); also: nearly all actives have a fitted effect of over 45% in size; as to activity change, negative = cytotoxic: % is scaled to controls: 0 for no effect and ±100 for the full control effect
Settings: A673 Ewing sarcoma viability, CellTiter-Glo ATP luminescence, 48 h; activity change, negative = cytotoxic: at 46 µM (top of the series) unless noted
In short: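 A673 cells (500-1,000 cells/well in growth media) were pre-incubated 5 h at 37 degrees C, then exposed to compounds for 48 h. Viability was read as CellTiter-Glo luminescence; concentration-response curves came directly from the primary screen.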
In the case of CC1Sc2c(C(=O)O)c(=O)c3cc(F)c(N4CCNCC4)cc3n21 (centres undefined), the activity change, negative = cytotoxic is reported as inconclusive: -49.4%.
For COc1ccc(CC2NCCc3cc(OC)c(OC)cc32)cc1OC (centres undefined), the activity change, negative = cytotoxic was inconclusive: -30.2% [cytotoxic].
For OC(O)C(Cl)(Cl)Cl, the “activity change, negative = cytotoxic” value was inactive: -3.18%.
For C=CC(=O)NCNC(=O)C=C, the “activity change, negative = cytotoxic” value was inactive: -30.3% [at 92.7 µM].
With Cc1nnc2n1-c1sc(CCc3ccc(CC(C)C)cc3)cc1C(c1ccccc1Cl)=NC2C (centres undefined) the Potency was inconclusive: 26.6 µM [cytotoxic, single point].
For CC1(C)CC/C(=C/c2ccc(Cl)cc2)C1(O)Cn1cncn1 (centres undefined), the “activity change, negative = cytotoxic” value was inactive: 33.3% [at 92.7 µM].
In the case of ClC1=C(Cl)[C@]2(Cl)[C@@H]3[C@@H]4C[C@@H]([C@H]5O[C@@H]45)[C@@H]3[C@@]1(Cl)C2(Cl)Cl, the Potency is reported as inconclusive: 48.6 µM [cytotoxic, single point].
With O=[N+]([O-])c1cc([As](=O)(O)O)ccc1O the “activity change, negative = cytotoxic” value was inactive: -2.26%.
In the case of Oc1ccc2c3c1O[C@H]1[C@@H](O)C=C[C@H]4[C@@H](C2)NCC[C@@]341, the “activity change, negative = cytotoxic” value is reported as inactive: -16.4% [at 92.7 µM].
In the case of CC(C)(C)c1cc(C=C(C#N)C#N)cc(Br)c1O, the Potency is reported as inconclusive: 37.2 µM [cytotoxic, single point].

Reference: PubChem BioAssay (NCATS)
Potency is read from the fitted curve at half-maximal effect; tags tell the direction and shape of the fitted curve.
